Reference: the supplement of paper PMC10126150
Sequences with one replicate were seen in a single cluster, so their values are uncertain.

Tested on: ATP
Assay: switch fluorescence ratio, 500 uM ATP over buffer (Cy3 cluster intensity, sum of 5 cycles each) (fold (ratio)); higher = stronger signal-on switching upon ATP binding; sequences stand for … in TCGTCGGCAGCGTCAGATGTGTATAAGAGACAGTTTTTTTTTTTTTTTTTTTTTTTTT…TC
Conditions: aptamer strand: ATP DNA aptamer (quencher-CACCTGGGGGAGTATTGCGGAGGAAGG + anchor), 100 nM annealed; ATP concentration: 500 uM; one replicate
Method in brief: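 Imaging in selection buffer was followed by imaging after 15 min with 500 uM ATP at 22 °C, for Cy3-labelled switching-strand clusters annealed to 100 nM quencher-labelled ATP aptamer on a modified Illumina MiSeq flow-cell. Five of these buffer/ATP cycles ran, separated by NaOH stripping and re-annealing. The fluorescence ratio per cluster is summed target-cycle over summed buffer-cycle Cy3 intensity, averaged per switch-domain sequence; clusters outside 100-1000 RFU were removed.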
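Note: ATP exposure 15 min at 22 °C before imaging.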

Row | Sequence | switch fluorescence ratio
1 | GGGATTCAAA | 1.01
2 | ATAATACTTT | 1.04
3 | TAGACTTTCT | 1.02
4 | GTTTCCCAG | 1.02
5 | ATCCCTTGCT | 1.14
6 | TCGATTACTT | 1.08
7 | TTGAATAGAC | 1.05
8 | GTGTAAATAT | 0.981
9 | CGATAAGGGT | 1.03
10 | GCGCAACCG | 1.05
11 | AGGAGT | 0.995
12 | TGCGCTTTCT | 1.06
13 | TCATGCAACT | 1.04
14 | CCGTAGTACG | 1.55
15 | ACATATAGAC | 1.01
16 | TGGGATCGTA | 0.99
17 | TTCGTGTTGC | 0.992
18 | AATAATTGA | 1.03
19 | CCTTGATAAA | 0.983
20 | TGATGGGCAC | 1.05
21 | ATTTAATACT | 1.02
22 | TAACTGCACT | 1.43
23 | TCGTAAGCGG | 0.951
24 | ACGGACGC | 1.24
25 | GACTTAGTCG | 1.06
26 | TATCACGTTG | 1.02

Row | Sequence | switch fluorescence ratio
27 | TATTCGGTAC | 1.17
28 | GCTGATCTTT | 0.955
29 | CTAACCCCGC | 1.15
30 | AGCAAAGATC | 0.96
31 | ACGTTTGCGG | 1.04
32 | GAATTTAGAC | 0.993
33 | CTATCCGGTG | 1.18
34 | TAACAGTATT | 1.08
35 | GCGGTTGTTT | 0.951
36 | GCACGAAGGC | 1
37 | TTTCCAACT | 1.01
38 | ACTGGAAACA | 1.01
39 | CGGGGTTAAA | 0.998
40 | AAAGTAAGGG | 0.979
41 | ATAAAAATTA | 0.979
42 | CCTCTTTAGT | 1.03
43 | ACAGTGATTA | 1.02
44 | GACCCAACTA | 0.986
45 | CCCCACTACA | 1.1
46 | TACGGCACTG | 1.67
47 | TAGGATTGGA | 1.03
48 | ATGCATCTCG | 0.969
49 | ATGCCGCAGG | 1.01
50 | GCCGAGTCGT | 1.03
51 | AGACCAAGTT | 1.8
52 | ACGAGAACCG | 1.06

Row | Sequence | switch fluorescence ratio
53 | ATATATGCTA | 1.03
54 | GGGGACCTTC | 1.19
55 | TGATTCAACG | 1.02
56 | TATTCCAGAG | 1.06
57 | AGGGACTCTG | 1.08
58 | GAGCCGCATC | 1.16
59 | ACAGGTTATT | 0.995
60 | CGCTAGTAGC | 1.05
61 | TGCCTCGAGT | 0.989
62 | CGGAGTGAGA | 1.15
63 | TACGTAACGA | 1.37
64 | AAACCGAGT | 1.02
65 | GGGCTGCGGT | 0.968
66 | AGCGATGGTG | 1.02
67 | AGGTAGGGAG | 0.982
68 | TCTGGCATCA | 0.983
69 | GGGCGGAGGC | 1.04
70 | TAATTGGCAT | 1.01
71 | CGAGTGATTT | 1.57
72 | TGCAGAGAGG | 1
73 | GCAAGCAGGT | 1.07
74 | CACATCGGAA | 1.06
75 | TTATAAAACG | 0.97
76 | TCTAGCAGAC | 3.07
77 | GAACCTCTAC | 1.46
78 | ACGGGAATTA | 1.03

Row | Sequence | switch fluorescence ratio
79 | CAGTCAAGAG | 1.09
80 | AATTCCCTTG | 0.96
81 | AATGGGCCCG | 0.977
82 | TACAGCCGGA | 1.29
83 | CAGCGGTGT | 1.01
84 | TTGAGTAAAC | 1.05
85 | ACCTCCCGCT | 2.97
86 | ATTCCCTGTA | 1.03
87 | CTTGTTAGTT | 1.02
88 | AAGGCTCCTG | 1.02
89 | GTATTTGGTA | 0.997
90 | CGATTCATAC | 3.56
91 | CGAACCAGCT | 1.06
92 | TGGTAGTGGA | 0.977
93 | TTGTTGCACT | 0.966
94 | TTCATGTATG | 0.983
95 | GTATGTGCGG | 1.01
96 | GCTTTAACCA | 0.992
97 | GTAAGTTATT | 1.14
98 | ACAAGTTTAT | 0.987
99 | TTCCGTACAT | 1.13
100 | TCATAGCATT | 1.01
101 | TAAATGAGCT | 0.979
102 | TACACGATTG | 1.06
103 | GTAATCAAAA | 0.962
104 | GCACCGAGTT | 0.996

Row | Sequence | switch fluorescence ratio
105 | ATAAGGGAA | 1.01
106 | CGACCATTG | 0.992
107 | TCATATTGTT | 1.02
108 | CATATGTCGG | 1.01
109 | AAATCGACGG | 1.04
110 | AAGCGGGGA | 1.02
111 | AAGCCTGACT | 1.34
112 | CAACCGTTGG | 0.976
113 | CGTTGAGGCG | 0.931
114 | TGGATGTCGC | 1.03
115 | CCCCATTGTG | 2.89
116 | GGGGCAAAGT | 0.99
117 | CTGCTAGAGA | 0.978
118 | GCGTAAGTAC | 1.6
119 | GGTGAGTAAG | 0.989
120 | CAGAATTAGA | 1.02
121 | TCAAGCTTAG | 0.984
122 | GACAAATTAG | 0.98
123 | TGAGGCCGTG | 0.957
124 | ACGTAGGTGT | 1.11
125 | GTGAGACAGC | 1.05
126 | ATCAAACGTA | 1.09
127 | CGACATAAGC | 1.19
128 | TTAAAGCATA | 1.03
129 | ATCCGGGGAT | 1.01
130 | GGGGCGGCAA | 1.32

Row | Sequence | switch fluorescence ratio
131 | GCCTAAAATC | 1.06
132 | TAAGAAACTC | 1.02
133 | GGTGAACATT | 1.01
134 | ATTTAAAGAA | 0.988
135 | TGTATAAAT | 1.04
136 | GATGCAATGT | 3.35
137 | CTGAGTTAG | 1.01
138 | TAAAGCTCTA | 1.04
139 | CCATCCATGA | 1.04
140 | AAACTATTGT | 1.01
141 | GGTGTCGGTT | 0.994
142 | TGGACGGGAC | 1.15
143 | TTCAGTGTCT | 0.979
144 | CTACAGGGAT | 1.04
145 | GCGATACGTT | 1.87
146 | CACATATGTG | 1.05
147 | CATCATTTTA | 0.99
148 | TTGAGGCATA | 1.3
149 | ACGTTCTACA | 1.2
150 | CTTCGATCAT | 1.03
151 | TGTAAGAACG | 1.07
152 | CGGCCGTCCT | 1.03
153 | TGTTATAGGT | 1.01
